Source: PubChem BioAssay AID1345083 (National Center for Advancing Translational Sciences (NCATS), 2018)
The campaign covered roughly 94,000 compounds. About 6,200 (6.6%) were called active. The shares of active, inactive and inconclusive entries below differ from those in the screen. Calls come from the whole dose curve; as a rule, active = well fitted inhibition curve with a large enough effect; inconclusive = small, poorly fitted or top-dose-only effect; inactive = flat fitted curve, though single readings scatter. Potencies of inconclusive entries are doubtful fits and often do not repeat.

test: Cytotoxic Profiling in HEK 293 Cell Line of Diverse Libraries Using Quantitative High-Throughput Screening; details: HEK 293 viability, ATP luminescence (CellTiter-Glo), 48-72 h; series mostly up to 115 µM; note: nearly all actives have a fitted effect of over 60% in size
Summary of the method: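 CellTiter-Glo luminescence (cellular ATP) was read after 48 or 72 hr of compound exposure at 37 degree Celsius. Cells were HEK 293 plated at 250 cells/well.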
Potency is the fitted concentration of half-maximal effect; tags give direction and shape of the fitted curve.

Row | Compound | Potency
1 | COCCN1C(=O)c2cccn2CC1CNC(=O)c1cc(C)nn1C (stereo unspecified) | inactive
2 | COc1cc(CN2CCCCC23Cc2ccccc2CNC3=O)cc(OC)c1 (stereo unspecified) | inconclusive: 56.2 µM [inhibitor, partial curve, poor fit]
3 | Cc1nn(-c2ccccc2)c2c1C(C)N(C1CCN(C(=O)Nc3ccc(Cl)cc3)CC1)C2=O (stereo unspecified) | inconclusive: 22.4 µM [inhibitor, full curve]
4 | C#CCNC(=O)c1nc(-c2ccc(Cl)cc2)c2cnccn12 | inconclusive: 70.8 µM [inhibitor, partial curve, poor fit]
5 | COC(=O)N(C)Cc1cccc(N2CCN(C(C)c3ccccc3)CC2)c1 (stereo unspecified) | active: 44.7 µM
6 | Cc1ccc(S(=O)(=O)N2[C@@H]3CC[C@H]2CC(NC(=O)c2ccncc2)C3)c(C)c1 (stereo partly specified) | inconclusive: 50.1 µM [inhibitor, partial curve, poor fit]
7 | COCCNC(=O)c1cc(-c2ccc(Cl)cc2Cl)nc2c1cnn2C | inactive
8 | Cc1nc2ccc(C(=O)N3C[C@@H](CN4CCCCC4)[C@@H](CO)C3)cc2s1 | inactive
9 | COc1cccc(-c2ccc(CN3CCCC3C(=O)NCC(F)F)cc2)c1 (stereo unspecified) | inconclusive: 39.8 µM [inhibitor, partial curve, poor fit]
10 | COc1ccccc1CN1CCC2(CC1)C(=O)NCN2Cc1ccc(Cl)cc1 | inconclusive: 89.1 µM [inhibitor, single point]
11 | Cc1cc(C(=O)Nc2ccc([C@@H](O)[C@H]3COCC(=O)N3CC(C)C)cc2)n(C)n1 | inconclusive: 79.4 µM [inhibitor, partial curve, poor fit]
12 | O=C(NC1CC1)C1CCC(=O)N(CCCc2ccccc2)C1 (stereo unspecified) | inactive
13 | O=C(NC1CCc2n[nH]c(=O)n2CC1)c1ccc2nc[nH]c2c1 (stereo unspecified) | inconclusive: 89.1 µM [inhibitor, single point]
14 | O=C1COc2ccc(NCCOc3ccccc3)nc2CN1Cc1ccccc1F | inconclusive: 35.5 µM [inhibitor, partial curve, poor fit]
15 | COc1cccc(C(=O)NC2CCN(c3nccc(Nc4ccccc4OC)n3)CC2)c1 | active: 39.8 µM
16 | O=C(NCCCN1CCCc2ccccc21)c1ccc(N2CC3CC(C2)[C@H]2CCCC(=O)N2C3)nc1 (stereo partly specified) | inconclusive: 28.2 µM [inhibitor, partial curve, poor fit]
17 | c1ccc([C@@H]2CN(C3CCOCC3)C[C@H]2COc2cccnc2)nc1 | inconclusive: 56.2 µM [inhibitor, partial curve, poor fit]
18 | COc1ccccc1-c1ccc(CN2CCC(N[S+](=O)([O-])c3cccs3)C2)cc1 (stereo unspecified) | inconclusive: 31.6 µM [inhibitor, partial curve, poor fit]
19 | Cc1cc(C(=O)NCc2ccncc2)c2c(C3CCNC3)noc2n1 (stereo unspecified) | inactive
20 | CCn1ncc(N2CCCC(CC(=O)N(C)Cc3ccccc3)C2)cc1=O (stereo unspecified) | inconclusive: 100 µM [inhibitor, single point]
21 | CC(C)CN(CC1CN(C(=O)COc2ccccc2)CCO1)C(=O)c1ccc(F)cc1 (stereo unspecified) | inconclusive: 50.1 µM [inhibitor, partial curve, poor fit]

Row | Compound | Potency
22 | COc1ccc(OC)c(NC(=O)c2cc3c(N4CCSCC4)nc(C)cn3n2)c1 | inactive
23 | CCN(Cc1ccccc1F)C(=O)c1cc(COc2ccccc2)[nH]n1 | inconclusive: 50.1 µM [inhibitor, partial curve, poor fit]
24 | CCc1ccc(NC(=O)Cn2c(=O)c(-c3noc(CC)n3)c3n(c2=O)CCCCC3)cc1 | inactive
25 | COc1ccc(-c2nnc([C@H]3CCN(CC4CCCCC4)C3)o2)cc1 | inconclusive: 89.1 µM [inhibitor, partial curve, poor fit]
26 | COc1ccc(C(=O)N2CCc3nc(C4CC4)nc(-c4ccc(Cl)cc4)c3CC2)cc1 | inconclusive: 100 µM [inhibitor, single point]
27 | O=C(Cc1cccn1-c1ccc(Cl)cc1)N1CCCC1 | inconclusive: 100 µM [inhibitor, single point]
28 | O=C(NC1CCN(C(=O)c2ccc(-c3cccs3)cc2)CC1)c1cccc(Cl)c1 | inconclusive: 100 µM [inhibitor, single point]
29 | O=C1NCCN2CC3(CCN(C(=O)NCc4ccccc4)CC3)CC12 (stereo unspecified) | inactive
30 | CCn1ccc(C(=O)N2CCC(c3nn(C)c4c3COCC4)CC2)n1 | inactive
31 | Cc1cc(C)c(NC(=O)Cn2c(N(C)Cc3ccccc3)nc(C)cc2=O)c(C)c1 | inconclusive: 50.1 µM [inhibitor, partial curve, poor fit]
32 | Cc1noc2c(NC3CCOCC3)cc(-c3cccc(C(F)(F)F)c3)nc12 | inconclusive: 100 µM [inhibitor, partial curve, poor fit]
33 | Cn1ncc2c(C(=O)N3CCC(C#N)CC3)cc(-c3ccc(Cl)cc3Cl)nc21 | inconclusive: 35.5 µM [inhibitor, full curve, poor fit]
34 | O=C(Nc1ccccc1)O[C@@H]1CO[C@H]2[C@@H]1OC[C@@H]2NCc1ccccc1 | inconclusive: 79.4 µM [inhibitor, partial curve, poor fit]
35 | CN1CC(=O)N(C2CCNC2)Cc2c(NCC3CC3)ncnc21 (stereo unspecified) | inactive
36 | COc1ccc(-c2cc(-c3ccc4c(c3)CNC4=O)cn3cncc23)cc1 | inconclusive: 79.4 µM [inhibitor, partial curve, poor fit]
37 | CCN1CCC2(CCC1=O)CN(Cc1nc(CCOC)no1)CCN2C (stereo unspecified) | inactive
38 | CC(C)C(=O)N1CCN(c2nc3c(s2)CC(C(=O)Nc2ccc(Cl)cc2)CC3)CC1 (stereo unspecified) | inconclusive: 3.55 µM [inhibitor, full curve, poor fit]
39 | CNC(=O)[C@H]1C[C@H](Oc2ccccc2)CN1Cc1cccc(F)c1 | inconclusive: 89.1 µM [inhibitor, partial curve, poor fit]
40 | COCCN(C)C(=O)c1coc(COc2ccc(F)cc2Cl)n1 | inactive
41 | CCN1C(=O)C2CC3(CCN(C(=O)c4n[nH]c(=O)c5ccccc45)CC3)CN2C1=O (stereo unspecified) | inconclusive: 35.5 µM [inhibitor, partial curve, poor fit]
